{"source": "PubChem BioAssay (NCI)", "key": {"[1]": {"system": "HCT-15 colon", "assay": "NCI-60 one-dose screen, 48 h (100 = growth as untreated, 0 = no growth, -100 = all killed)", "details": "25 µM"}, "[2]": {"system": "HT29 colon", "assay": "NCI-60 one-dose screen, 48 h (100 = growth as untreated, 0 = no growth, -100 = all killed)", "details": "0.25 µM"}}, "note": "More than one record can exist for a structure, and the calls need not agree.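 Testing used 96-well plates and a 48-hour single-concentration exposure. Example: -40 means 40% of the starting cells died.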 A number of entries come with more than one value. The other results are left out here. The calls were made as follows: active = growth percent below 10; inactive = the rest. The source may hold further records. This drug was run again and again over the years, at the concentration stated with the values; each value is one run. Counts like (3×) stand for listed records that agree.", "data": [{"smiles": "COc1cccc2c1C(=O)c1c(O)c3c(c(O)c1C2=O)C[C@@](O)(C(=O)CO)C[C@@H]3OC1CC(N)C(O)C(C)O1", "note": "(stereo not given in full)", "values": [{"measurement": "growth", "setting": "[1]; runs of 1995", "value": "active: 6.68, -8.25, -19.4, 2.13, 7.78, -27.4, 3.76, -17, -8.5, 1.54, -11.6, -16.8, -14.5, 7.83, 5.32, -43.7, -14.7, 1.01, 3.72, 2.83, -40.4, -41.5, 2.38, -18.1, 1.82, -9.49, 3.84, 3.74, 0.61, -24.5% and inactive: 10.2, 17.5, 10.7, 19.7, 17.7, 20.7, 13.7, 10.9, 11.1%"}, {"measurement": "growth", "setting": "[1]; runs of 1996", "value": "active: 4.27, 5.48, -8.75, 8.04, 7.93, 9.26, -36.5, 4.45, 7.18, 5.25, -19.5, 6.91, 6.99, -12.6, 3, -59.5, 6.08, 8.84, 8.63, -11.5 (2×), -11.6, 0.0972, -20, -7.22, -28.7, 1.7, 3.75, 0.279, -10.7, -8.28, -31.6, -7.89, -13.1, -26.4, -14.2, -29.4, -6.25, 0.552, -4.67, 4.6, -5.19, -27.1, 8.53, 1.12, -9.28, 0, 2.4, 1.33, 1.36, 7.73% and inactive: 28.2, 12, 18.2, 91.7, 12.9, 11.3, 38.9, 14.7%"}, {"measurement": "growth", "setting": "[1]; runs of 1997", "value": "active: 5.75, 4.46, 6.6, 7.96, -24.5, -30.5, -5.04, -0.769, -9.92, -20.5, -1.72, 4.54, -8.49, -23.7, -0.881, -25.8, -1.53, -15.2, -18.4 (2×), -38.5, -23, 0.981, -2.4, 1.06, 6.75, 1.55, 4.44, 6.02, -21.8 (2×), -0.752, 6.87% and inactive: 10.6, 13.6, 14.3, 12.9, 14.9, 25.7, 12.1, 17.1, 28%"}, {"measurement": "growth", "setting": "[1]; runs of 1998", "value": "active: 5.94, -16.4 (2×), 8.17, -30.9, -2.39, 3.81, 1.23, -20.6, -3.38, -26.5, 6.61, -11.1, 3.88, -9.86, 3.3, -24.4, 0.996, -6.43, 8, -1.69, -40.7, 0.677% and inactive: 11.3%, 12.2%, 19.4%"}, {"measurement": "growth", "setting": "[1]; runs of 1999", "value": "active: -13.4, -9.08, 3.11, 6.07, -4.6, -14.2, -100, -83.1, 0.914, 0.0912, 4.91, 1.47, 1.35, -34.8, -92.4, 2.56, 1.41, 2.2%"}, {"measurement": "growth", "setting": "[1]; runs of 2000", "value": "active: -100% (2×), 1.06%, -30.1%"}, {"measurement": "growth", "setting": "[2]; runs of 2006", "value": "inactive: 41.7%, 62.7%"}, {"measurement": "growth", "setting": "[2]; runs of 2007", "value": "inactive: 50.2, 55.5, 37.8, 50.9, 49.6, 60.2, 45.1, 49.5, 47.7, 48.3, 50.1, 46.4, 47.1, 58.6, 77.2, 66.6 (2×), 57.4, 48.6, 55.1, 49.1, 57.2, 57.1, 69.7, 76, 61.2, 52.7, 14.6, 57.3, 59.9, 60 (2×), 60.7, 64.3, 45, 59.1, 45.6, 46.1, 47.5, 59.2, 59.8%"}, {"measurement": "growth", "setting": "[2]; runs of 2008", "value": "inactive: 58.5 (3×), 52.8, 57.7, 47.7, 47.9, 53.7, 53.5, 46.2, 56.1, 60.3, 63.5, 59.8, 31.4, 45.6, 41.6, 46.4, 45.9 (2×), 39.3, 38.4, 34.9, 37.2, 50.2, 48.7, 95.6, 46.8, 28, 33.7, 45.5, 23.9, 23.3, 42.4, 35.6, 38.1, 34.1, 43.8, 41, 55.3, 54.3, 54.9, 53.6, 49.4, 55.6, 63.8, 58.7, 45.4, 44.7, 49.2, 40.9, 47% and active: -16%, -62%"}, {"measurement": "growth", "setting": "[2]; runs of 2009", "value": "inactive: 43.1, 48.7 (2×), 48.3 (3×), 44.7, 40.3, 38.2 (2×), 49.4 (2×), 46.4, 51.8, 45.4, 55.5, 46.9, 47.7, 46.6, 50.7, 47.5, 37.5, 43.8, 41.9 (2×), 40.7, 33.8, 47.8, 48.5, 57.7, 53.3, 49.3, 63.9, 55.1, 41.7, 43.9, 45.8, 54.9, 50.5, 46.1, 43.4, 49.2, 55.3, 54.1, 56.5, 23.5, 64.4, 53.7, 35.8 (2×), 42.4, 41.1, 28.2, 43.2 (3×), 39.6, 33.4, 31.1, 45.1, 41.2, 32.5, 44.6, 45.5, 42.2, 40.2%"}, {"measurement": "growth", "setting": "[2]; runs of 2010", "value": "inactive: 65, 44.2, 39.8, 45.6 (2×), 31.6, 57.2, 50.6, 45.1, 42.9 (2×), 41.5 (2×), 37.9 (2×), 39.4, 36.8, 48.7, 49.4 (2×), 30.7, 42.3, 37.5, 31.3, 48.8, 33.9, 32.9, 27.8, 44.7, 37.7, 40.4, 36, 23.9, 39.9, 30.1, 42.7, 46.5, 46.6, 47.9, 45.5, 49.1, 51.4, 47.7, 43.5, 40.6, 47.3, 53.6, 38.5, 46.7, 39.6%"}, {"measurement": "growth", "setting": "[2]; runs of 2011", "value": "inactive: 44.9, 40.8, 37.5 (2×), 44.6, 51.1, 64, 49.6, 40.3, 34.4, 45.4 (2×), 52 (3×), 43.9, 46 (3×), 46.5, 61, 58.6 (2×), 61.1, 54.8, 57.3, 52.1, 56 (2×), 53.1, 55.8, 45.8, 46.4, 55.5, 44.5, 43.1, 58.4, 41.5, 42.9, 46.7, 46.2, 39.2, 62.5, 53.9 (2×), 44.4, 41.1, 36.7, 42, 41.7, 46.6, 49.1, 54.4, 58%"}, {"measurement": "growth", "setting": "[2]; runs of 2012", "value": "inactive: 52.6 (2×), 38, 47.9 (2×), 48.6, 43.4, 48, 51.8 (2×), 54.4 (2×), 57.3, 42.3, 39.7, 43.9, 48.5, 39.4, 41.5, 35.8, 35, 39, 41.2, 42.2, 42.6, 45.8, 47.4, 54.9, 55.8 (2×), 62.1, 58.7, 54.1, 55.3, 56.2, 68.1, 60.6, 58, 53.3 (2×), 50.2, 55.1, 42.1, 59, 53.1, 68.5, 62, 61.6, 64.2, 57.7, 67.5, 70.9, 63.8, 63, 51.1, 41.9, 50, 51.6, 51.3, 50.5, 62.3, 59.3, 53.4, 48.4, 47.1, 47.3, 56.8, 59.4%"}, {"measurement": "growth", "setting": "[2]; runs of 2013", "value": "inactive: 48.7, 64, 57.5, 52.6, 56.5, 59.2, 64.6, 54.4, 58.6, 66.5, 69.4, 58.5 (3×), 66.2 (2×), 55.6, 60.3 (2×), 57.6, 62.3, 64.4, 56.3 (2×), 67.4 (2×), 73.4, 89.6, 57, 66.9 (2×), 64.5, 65.9, 66.6, 60.2, 62.9, 68.6, 69.8, 71.5, 62.2, 66, 60.7, 58, 67, 58.7 (2×), 64.3, 57.3, 60.5, 61 (2×), 67.3, 57.4, 65, 68.7, 68.5, 58.4, 50.9, 52.1, 55.3, 49.5, 50.2, 53.7, 49.9, 54.8, 57.1, 58.1, 61.1, 45.7, 47.9, 49.4%"}, {"measurement": "growth", "setting": "[2]; runs of 2014", "value": "inactive: 50.5, 55.5 (2×), 57.1, 56.8, 60.4, 55.2, 39.7, 24.7, 44, 47.5 (2×), 52.1, 54.8 (2×), 48.3, 51.6, 52.8, 55, 58.7, 59, 52.7 (3×), 56, 48.7, 49.3, 51.1, 52.2 (2×), 46.1, 46.5, 47.7, 49.5 (2×), 46.2, 45, 43.8 (3×), 46.9, 48.2, 49.9, 52.6 (2×), 44.6 (2×), 52.4, 49.1, 53.7, 50.6, 41.2, 39.3, 40.5, 47, 42.1, 44.2, 31.8, 28, 51.8, 20.3, 39.8, 48.8, 23.8, 41.3, 42.8, 43.3, 36.7, 36.2, 47.8, 37.7, 37.3, 49.2, 45.6, 47.3, 44.9, 33.8, 33.5, 38.5, 40.7%"}]}]}
